Laboratory results from the supplement of paper PMC9151546.
Most values come without repeats; read them as rough.

Tests used:
CHO-K1 [1] = assay: relative survival (nuclei to bead ratio vs DMSO control) (% of vehicle control); higher = more surviving cells
Procedure: (§1)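 Flow-cytometric in vitro micronucleus assay (Litron MicroFlow) in CHO-K1 cells in 96-well plates, 19 concentrations (4.5-200 µM, n=1 per concentration). Without S9, cells were exposed for 24 h and sampled at 48 h. With Aroclor 1254-induced rat liver S9, cells were exposed for 3-4 h and sampled at 27-28 h. Read-outs are %MN and %hypodiploid nuclei relative to nucleated events, and relative survival as the nuclei-to-bead ratio versus the 1% DMSO vehicle control (x100).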

CHO-K1 [2] = assay: micronucleus frequency (% of nucleated events); higher = more micronuclei (genotoxic)
CHO-K1 [3] = assay: hypodiploid nuclei frequency (% of nucleated events); higher = more hypodiploid events (aneugenic)
Procedure: as §1
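Wherever hypodiploid nuclei frequency (% of nucleated events) is given: hypodiploid nuclei gated on a flow cytometer with 488 nm excitation after SYTOX Green staining, cultures at 37 °C, positive controls vinblastine without S9 and cyclophosphamide with S9.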
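Wherever micronucleus frequency (% of nucleated events) is given: cells lysed with nuclei stained by SYTOX Green, then micronucleus-gated events counted against nucleated events by flow cytometry with 488 nm excitation.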
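Wherever relative survival (nuclei to bead ratio vs DMSO control) is given: Lysed-cell nuclei stained with SYTOX Green and counted against counting beads by flow cytometry at 488 nm excitation, with vinblastine (no S9) and cyclophosphamide (plus S9) as positive controls.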

ClC(Cl)c1ccccc1 [Benzal chloride]
Settings	hypodiploid nuclei frequency, CHO-K1 [3] [%]	micronucleus frequency, CHO-K1 [2] [%]	relative survival, CHO-K1 [1]
concentration: 4.5 (µM), S9 metabolic activation: with S9, exposure time: 3-4 hours	0.26	1.1	100
concentration: 4.5 (µM), S9 metabolic activation: without S9, exposure time: 24 hours	0.86	0.82	89
concentration: 5.63 (µM), S9 metabolic activation: with S9, exposure time: 3-4 hours	0.26	0.84	92.3
concentration: 5.63 (µM), S9 metabolic activation: without S9, exposure time: 24 hours	0.7	1.28	98.3
concentration: 7.04 (µM), S9 metabolic activation: with S9, exposure time: 3-4 hours	0.26	1.1	103
concentration: 7.04 (µM), S9 metabolic activation: without S9, exposure time: 24 hours	0.66	1.32	105
concentration: 8.8 (µM), S9 metabolic activation: with S9, exposure time: 3-4 hours	0.24	0.8	108
concentration: 8.8 (µM), S9 metabolic activation: without S9, exposure time: 24 hours	0.7	1.18	87.6
concentration: 11 (µM), S9 metabolic activation: with S9, exposure time: 3-4 hours	0.18	1	91.3
concentration: 11 (µM), S9 metabolic activation: without S9, exposure time: 24 hours	0.7	0.94	85.1
concentration: 13.7 (µM), S9 metabolic activation: with S9, exposure time: 3-4 hours	0.18	0.92	120
concentration: 13.7 (µM), S9 metabolic activation: without S9, exposure time: 24 hours	0.88	1.14	88.7
concentration: 17.2 (µM), S9 metabolic activation: with S9, exposure time: 3-4 hours	0.26	0.82	105
concentration: 17.2 (µM), S9 metabolic activation: without S9, exposure time: 24 hours	0.58	1.22	102
concentration: 21.5 (µM), S9 metabolic activation: with S9, exposure time: 3-4 hours	0.2	0.8	112
concentration: 21.5 (µM), S9 metabolic activation: without S9, exposure time: 24 hours	0.4	1.74	129
concentration: 26.8 (µM), S9 metabolic activation: with S9, exposure time: 3-4 hours	0.34	0.68	103
concentration: 26.8 (µM), S9 metabolic activation: without S9, exposure time: 24 hours	0.78	0.94	121
concentration: 33.6 (µM), S9 metabolic activation: with S9, exposure time: 3-4 hours	0.22	0.68	119
concentration: 33.6 (µM), S9 metabolic activation: without S9, exposure time: 24 hours	1.16	0.98	97.6
concentration: 41.9 (µM), S9 metabolic activation: with S9, exposure time: 3-4 hours	0.24	0.8	108
concentration: 41.9 (µM), S9 metabolic activation: without S9, exposure time: 24 hours	0.72	1.22	85.1
concentration: 52.4 (µM), S9 metabolic activation: with S9, exposure time: 3-4 hours	0.2	0.82	108
concentration: 52.4 (µM), S9 metabolic activation: without S9, exposure time: 24 hours	1.06	1.9	95.5
concentration: 65.5 (µM), S9 metabolic activation: with S9, exposure time: 3-4 hours	0.14	0.74	112
concentration: 65.5 (µM), S9 metabolic activation: without S9, exposure time: 24 hours	0.84	0.9	103
concentration: 81.9 (µM), S9 metabolic activation: with S9, exposure time: 3-4 hours	0.14	1	98.2
concentration: 81.9 (µM), S9 metabolic activation: without S9, exposure time: 24 hours	1.08	1.22	98.6
concentration: 102 (µM), S9 metabolic activation: with S9, exposure time: 3-4 hours	0.2	0.62	93.5
concentration: 102 (µM), S9 metabolic activation: without S9, exposure time: 24 hours	1.08	1.28	94.5
concentration: 128 (µM), S9 metabolic activation: with S9, exposure time: 3-4 hours	0.2	1.04	125
concentration: 128 (µM), S9 metabolic activation: without S9, exposure time: 24 hours	1.12	1.48	96.5
concentration: 160 (µM), S9 metabolic activation: with S9, exposure time: 3-4 hours	0.26	1	96.5
concentration: 160 (µM), S9 metabolic activation: without S9, exposure time: 24 hours	1.3	1.6	84.3
concentration: 200 (µM), S9 metabolic activation: with S9, exposure time: 3-4 hours	0.2	0.96	77.5
concentration: 200 (µM), S9 metabolic activation: without S9, exposure time: 24 hours	1.14	2.58	88.7

CCCCCCCC1CCC(=O)O1 (centres undefined) [5-Heptyldihydro-2(3H)-furanone]
hypodiploid nuclei frequency [%], CHO-K1 [3]
Settings	S9 metabolic activation: with S9, exposure time: 3-4 hours	S9 metabolic activation: without S9, exposure time: 24 hours
concentration: 4.5 (µM)	0.3	0.3
concentration: 5.63 (µM)	0.18	0.46
concentration: 7.04 (µM)	0.28	0.36
concentration: 8.8 (µM)	0.22	0.46
concentration: 11 (µM)	0.18	0.38
concentration: 13.7 (µM)	0.16	0.54
concentration: 17.2 (µM)	0.08	0.68
concentration: 21.5 (µM)	0.44	0.46
concentration: 26.8 (µM)	0.32	0.58
concentration: 33.6 (µM)	0.26	0.6
concentration: 41.9 (µM)	0.36	0.6
concentration: 52.4 (µM)	0.32	0.44
concentration: 65.5 (µM)	0.36	0.48
concentration: 81.9 (µM)	0.24	0.66
concentration: 102 (µM)	0.34	0.62
concentration: 128 (µM)	0.26	0.76
concentration: 160 (µM)	0.38	0.68
concentration: 200 (µM)	0.16	0.96
